According to article PMC2843631:
These are yes or no findings as the source states them, for the method shown. In cells and extracts the contact can be indirect. Some results given as binding are weak or reduced against the parent protein; the word gives no strength. For part of these data: Sequences can lack the tags named with a protein.

Amino acid sequences for entries named in this document (tags omitted). A change or cut given only in a name is not applied to a line headed by its entry. Residues count along the entry.
UniProt Q9Y6K9: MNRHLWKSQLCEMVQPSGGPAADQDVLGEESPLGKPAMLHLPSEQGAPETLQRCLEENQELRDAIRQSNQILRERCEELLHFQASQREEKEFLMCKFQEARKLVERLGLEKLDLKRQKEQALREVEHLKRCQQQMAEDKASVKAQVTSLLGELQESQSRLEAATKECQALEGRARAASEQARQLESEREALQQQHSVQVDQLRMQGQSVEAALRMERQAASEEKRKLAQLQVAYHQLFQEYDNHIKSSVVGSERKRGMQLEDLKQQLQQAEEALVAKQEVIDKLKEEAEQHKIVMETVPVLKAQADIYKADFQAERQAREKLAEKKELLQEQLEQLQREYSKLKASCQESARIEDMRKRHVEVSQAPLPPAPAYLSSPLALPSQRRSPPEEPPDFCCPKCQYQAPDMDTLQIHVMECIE
UniProt P10809, residues 27-573: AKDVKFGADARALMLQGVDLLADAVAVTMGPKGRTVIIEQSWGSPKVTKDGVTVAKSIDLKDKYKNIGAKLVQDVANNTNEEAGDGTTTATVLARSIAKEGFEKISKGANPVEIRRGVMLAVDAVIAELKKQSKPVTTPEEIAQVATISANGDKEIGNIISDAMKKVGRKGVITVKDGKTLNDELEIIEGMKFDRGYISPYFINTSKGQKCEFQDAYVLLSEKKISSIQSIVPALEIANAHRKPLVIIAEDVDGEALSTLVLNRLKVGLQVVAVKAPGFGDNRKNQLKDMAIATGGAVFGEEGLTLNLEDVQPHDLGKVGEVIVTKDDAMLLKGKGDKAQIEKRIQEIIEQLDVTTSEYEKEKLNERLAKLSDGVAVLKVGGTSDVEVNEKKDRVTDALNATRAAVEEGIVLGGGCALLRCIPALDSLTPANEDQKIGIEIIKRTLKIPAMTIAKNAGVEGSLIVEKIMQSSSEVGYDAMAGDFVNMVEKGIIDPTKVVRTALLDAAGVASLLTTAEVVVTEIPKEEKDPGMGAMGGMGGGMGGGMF

Tests used:
[1] = target: T1, IKKα, Flag-tagged (human) (UniProt O15111); assay: co-IP; 293T cells co-transfected with Hsp60c constructs (HA tag) and each of the IKK subunit proteins (Flag tag) for 24 hrs
T1 sequence: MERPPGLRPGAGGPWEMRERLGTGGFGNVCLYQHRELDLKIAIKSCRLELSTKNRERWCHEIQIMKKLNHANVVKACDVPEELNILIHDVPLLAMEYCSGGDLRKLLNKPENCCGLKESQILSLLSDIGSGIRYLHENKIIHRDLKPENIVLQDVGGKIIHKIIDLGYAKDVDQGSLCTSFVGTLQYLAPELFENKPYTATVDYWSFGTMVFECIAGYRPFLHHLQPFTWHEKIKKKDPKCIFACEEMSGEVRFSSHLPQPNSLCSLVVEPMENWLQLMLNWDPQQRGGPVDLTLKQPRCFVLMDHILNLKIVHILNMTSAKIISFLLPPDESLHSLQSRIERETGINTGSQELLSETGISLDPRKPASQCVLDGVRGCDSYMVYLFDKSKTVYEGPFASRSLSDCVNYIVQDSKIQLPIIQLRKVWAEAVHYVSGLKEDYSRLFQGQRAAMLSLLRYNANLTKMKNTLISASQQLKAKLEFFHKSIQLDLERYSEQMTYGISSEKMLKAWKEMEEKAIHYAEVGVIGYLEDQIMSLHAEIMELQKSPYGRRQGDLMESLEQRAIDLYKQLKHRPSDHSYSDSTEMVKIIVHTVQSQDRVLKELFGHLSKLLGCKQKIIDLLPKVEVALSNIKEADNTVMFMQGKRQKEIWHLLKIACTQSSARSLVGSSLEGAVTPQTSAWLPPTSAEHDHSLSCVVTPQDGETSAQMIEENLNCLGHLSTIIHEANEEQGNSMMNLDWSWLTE

[2] = target: T2, IKKβ, Flag-tagged (human) (UniProt O14920); assay: as above
T2 sequence: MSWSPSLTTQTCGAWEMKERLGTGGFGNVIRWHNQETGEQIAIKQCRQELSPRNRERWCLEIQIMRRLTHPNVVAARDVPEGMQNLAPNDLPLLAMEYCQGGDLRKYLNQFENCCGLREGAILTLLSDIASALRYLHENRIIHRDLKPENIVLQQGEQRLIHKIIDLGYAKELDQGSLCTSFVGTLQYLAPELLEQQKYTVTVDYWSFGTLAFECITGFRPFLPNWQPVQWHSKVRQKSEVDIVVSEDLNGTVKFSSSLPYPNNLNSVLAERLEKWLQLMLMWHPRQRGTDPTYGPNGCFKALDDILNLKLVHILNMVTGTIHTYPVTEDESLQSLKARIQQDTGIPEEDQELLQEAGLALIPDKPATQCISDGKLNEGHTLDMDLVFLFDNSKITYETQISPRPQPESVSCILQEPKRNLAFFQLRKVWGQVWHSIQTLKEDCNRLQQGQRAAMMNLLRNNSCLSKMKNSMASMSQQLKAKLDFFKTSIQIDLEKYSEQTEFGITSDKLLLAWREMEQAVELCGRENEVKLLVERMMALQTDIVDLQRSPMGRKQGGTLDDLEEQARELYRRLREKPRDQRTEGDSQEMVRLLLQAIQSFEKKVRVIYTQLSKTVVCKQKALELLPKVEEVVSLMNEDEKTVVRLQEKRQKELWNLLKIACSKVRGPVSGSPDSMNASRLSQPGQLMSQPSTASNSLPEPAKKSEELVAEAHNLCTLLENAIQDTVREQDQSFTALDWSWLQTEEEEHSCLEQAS

[3] = target: endogenous IKK complex (human (endogenous in HeLa)) (UniProt O15111+O14920+Q9Y6K9); assay: co-IP; endogenous IKK complex immunoprecipitated from HeLa cells transfected with Hsp60c constructs (HA tag) for 24 hrs; cells of Fig. 6A then treated with TNF-α
[4] = target: T3, IKKα, endogenous (human (endogenous in HeLa)) (UniProt O15111); assay: co-IP; immunoblot of the IKK complex affinity-purified from HeLa S3 lysate with anti-IKKα antibody beads
T3 sequence: T1 sequence

[5] = target: T3, IKKα, endogenous (human (endogenous in HeLa)); assay: co-IP; endogenous; HeLa cell lysates (500 µg total protein each) immunoprecipitated with IKKα-, IKKβ- and IKKγ-specific antibodies and protein A/G agarose, lysis buffer A, 4°C; cells with or without TNF-α (10 ng/ml), interaction unaffected
[6] = target: T4, IKKβ, endogenous (human (endogenous in HeLa)) (UniProt O14920); assay: as above
T4 sequence: T2 sequence

Measured: binding

Hsp60c, cytosol-targeted version of Hsp60 lacking the mitochondrial targeting sequence, HA-tagged (from UniProt P10809 27-573) (domain or fragment)
binds: [1] | [2] | [3]

heat shock protein 60 (Hsp60), endogenous (from UniProt P10809 27-573)
binds: [4] | [5] | [6]
